# The supplement of paper PMC11417369
# Some of the results follow.
# System: PfAP2-HC AP2 domain (GST-tagged)
# Assay: gcPBM binding intensity (ln(normalized median fluorescence intensity)); higher = stronger DNA binding
# Summary of the method: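 In this array assay, P. falciparum DNA-binding domains with a GST tag, expressed in E. coli, were applied for 1 h to primer-extended double-stranded 36-bp intergenic genomic probes and negative controls on an Agilent 4 × 180k array. Bound protein was visualised with Alexa488 anti-GST antibody at 488 nm. Binding intensity is the highest Masliner-normalised natural-log median intensity across replicate spots of either probe orientation.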
row,Sequence,gcPBM binding intensity (ln)
1,TCCTTTTTGAAATGTTGTACTTTTTTTATCTTTCAT [XGTACX_site953],9.87
2,TAATTATATATATACACACACATACAGACAAATAAA [CACACA_site3412],10.6
3,GAAATTTGTTATTGCACACAAATTTTTCTTTTTTTA [CACACA_site2339],9.8
4,GCAATTTTTTTTAAGAGTACTAATATATTATAGTGG [XGTACX_site7316],9.41
5,TTTTTTTAATAGTGTGCACACAATATACAGAAAAAA [CACACA_site8399],10
6,AAAAAGTGACTCCTTACACACTTTACATAATTTAGG [CACACA_site8176],9.66
7,ATATACATATATATATGTACTTATTTATTTATTTAT [XGTACX_site2532],9.89
8,ATATATATATATATATGTACATATGTTTGTTTCCGC [XGTACX_site5167],10.1
9,CATAATTTAAAAAAGGTGCAAAATGGATAATATATA [GTGCAC_site9657],9.84
10,CATACATACATACATACATGCATACATACATACATA [TGCATGCA_site218],9.86
11,TTTTTTTTCATTTTATGTACACATAATTTAATATAT [XGTACX_site5768],9.9
12,TAATTTCTTTAGGGGGTGCTTTTATAGTTTTTATTA,10.1
13,TTTATATTTATGATGGGTACACAAAATTTTACCCAT [XGTACX_site1504],9.35
14,TTCATAAAATGTGTCTGTACGTAAATGTATTACACT [XGTACX_site3179],9.79
15,CTGTCTGCAGATATGGTGCATTTGTAAGATCTTACA [GTGCAC_site9870],9.56
16,AAAAAAATTAAAAATTAAAATTAAAAATAATATATA [GTGCAC_negctrl_site466],9.52
17,AATGTATAAATCCATACACACATAAATTTTAATAAT [CACACA_site2363],9.99
18,TATATATATGAACAATGTACGTATAATATTTTTATT [XGTACX_site7561],9.7
19,GATCTATACTATAATACACACATTTGATGAATGTAA [CACACA_site6163],9.71

row,Sequence,gcPBM binding intensity (ln)
1,AACATTATATATTGCAGTACTCCCATATGTTGATAA [XGTACX_site3119],9.54
2,ATATATATATATATATGTACACATAAAAAGAAAGAA [XGTACX_site1603],10.1
3,TTTAGTTGTGAGAATTGTACATATTTTCCTTTTACC [XGTACX_site7291],9.58
4,TATATACCTATATACACACACATATATTATAGATAT [CACACA_site6266],10.3
5,ATTAAAAAAAATATATATGTATAAAACAAGCAAAAT [XGTACX_negctrl_site474],9.78
6,TAGCCATTTTTATATTGTACTTATATAATCACATTT [XGTACX_site4407],9.74
7,ATAAAAAAAAATAACACACAGACATAAGAATAAATA [CACACA_site4162],10.2
8,ATATAAGAAAAGCACACACACACAAAAAAAAAAAAA [CACACA_site2827],11.1
9,GACCACTTTAGGATTTGTACACATATTATATATGCA [XGTACX_site6579],9.91
10,ATTAAAAAAATTGGCACACATAAAAATATATAAAAA [CACACA_site2748],10.1
11,GTTTTTAATGTTTTGACATGCAATATTAAAAATAAT [TGCATGCA_site174],9.31
12,AACAGATATGAATAGAAAAAAAAAAATGGCCCATAT [TGCATGCA_negctrl_site443],9.51
13,TGAAAAAAAAAATACACACACGAGTTGTTATACATA [CACACA_site7486],9.84
14,TTTTGATAGAAGTGTTCTAGGAATTCAACTGTAATA [GTGCAC_negctrl_site585],9.36
15,TATAATGATAATAATAGTACACATTAGAACGGGAGG [XGTACX_site2563],9.96
16,TATAATAATAAAAACACACACGTTGATTGTATTAGC [CACACA_site5336],10.1
17,ATAATATTATTTAAAAGTACTAACAAAAGAATATTA [XGTACX_site4989],9.62
18,CCTATTATTTCTAAAACACACAAAAATATAAAAGAA [CACACA_site2708],9.79
19,TCTTTTTTTTATTATATCATTGAAATGTTAAAACGA [XGTACX_negctrl_site473],9.32

row,Sequence,gcPBM binding intensity (ln)
1,AACGTGTGGAGAATTATAAATGAGTAAAAAATATAT [XGTACX_negctrl_site562],9.85
2,AAAATAAAAGAATAAAAATATGAAACTTTTTTAAAA [GTGCAC_negctrl_site348],9.46
3,GGGGGGAGGGTGAATACACACGTAATAATCATAAAC [CACACA_site8502],10.5
4,ATTAAATAAAAAAACACACACATATATACCTATATA [CACACA_site5837],11
5,CAAAACATTTTATCTACACACATATATAAATAAATA [CACACA_site3220],9.77
6,AATAAAACATAATAATGTACTCAAAGGTTTAACTTG [XGTACX_site4711],9.81
7,AAAAATGAAAGTAAGACATGCATGGAATTTTTTTTA [TGCATGCA_site347],9.79
8,TTTTTTTTTTATGAAAGTACATATGAAAAATACGAA [XGTACX_site3451],9.35
9,ATATATGTGTATGTATGTACTTATATTTTTTTTTAT [XGTACX_site1733],9.78
10,GCAAATCAATTTTTTTTTAAAACTCATTTTTTCGTT [CACACA_negctrl_site1136],9.75
11,TCCGTTATATATGTGTGTACATATAATATATCCTCA [XGTACX_site2588],9.86
12,TTCATACATATTTGAAGTACATTTAAAAATGTCCTT [XGTACX_site747],9.51
13,TCCAATATATTTATGAGTACTTATAAATTATACGTT [XGTACX_site742],9.7
14,GAAGTAATTTCATATACACACATATACATACATACA [CACACA_site6753],9.83
15,ATATATATATATGTATGTACGTATGTATTTACTGCT [XGTACX_site3839],10.1
16,TATTTATAATTATAATAATATATATATATATATATA [TGCATGCA_negctrl_site173],9.41
17,ATTGTGTTAATAAAATGTACATTTTCTCTACATTAA [XGTACX_site2766],9.72
18,TTTGAATAAAAACAAAAAATTAAATTAAATTAAATA [CACACA_negctrl_site312],9.33
